Sequences and labels used below:
B1: PhoQ; a variant is named by its letters at X, in order, P23837 (parent)
chain: MKKLLRLFFPLSLRVRFLLATAAVVLVLSLAYGMVALIGYSVSFDKTTFRLLRGESNLFYTLAKWENNKLHVELPENIDKQSPTMTLIYDENGQLLWAQRDVPWLMKMIQPDWLKSNGFHEIEADVNDTSLLLSGDHSIQQQLQEVREDDDDAEMTHSVAVNVYPATSRMPKLTIVVVDTIPVELKSSYMVWSWFIYVLSANLLLVIPLLWVAAWWSLRPIEALAKEVRELEEHNRELLNPATTRELTSLVRNLNRLLKSERERYDKYRTTLTDLTHSLKTPLXXLQXXLRSLRSEKMSVSDAEPVMLEQISRISQQIGYYLHRASMRGGTLLSRELHPVAPLLDNLTSALNKVYQRKGVNISLDISPEISFVGEQNDFVEVMGNVLDNACKYCLEFVEISARQTDEHLYIVVEDDGPGIPLSKREVIFDRGQRVDTLRPGQGVGLAVAREITEQYEGKIVAGESMLGGARMEVIFGRQHSAPKDE

The other results are listed elsewhere or left out.

In the assay the parent is B1. The assay is described as follows: enrichment ratio after two sorts for PhoP signalling (ratio (wild type AVST 3.29)); higher = more functional. Conditions: with PhoP (E. coli).
In the case of YVNF, the enrichment ratio was at most 0.25.
With MYIG, the enrichment ratio is at most 0.25.
Take FLTL: the enrichment ratio was 0.273.
As for YPKW, the enrichment ratio is at most 0.25.
On to EYCV, for which the enrichment ratio is at most 0.25.
With HLVC, the enrichment ratio is at most 0.25.
The same measure for VITP: at most 0.25; for AVTK: 17.9; for NCAQ: at most 0.25.
As for LASC, the enrichment ratio was at most 0.25.
For the variant RECT, the enrichment ratio is at most 0.25.
In the case of VKHE, the enrichment ratio is at most 0.25.
Take SNDS: the enrichment ratio is at most 0.25.
Turning to RHNA, the enrichment ratio is at most 0.25.
In the case of EVNT, the enrichment ratio is at most 0.25.
Take HFYC: the enrichment ratio is at most 0.25.
With WPLY, the enrichment ratio is at most 0.25.
The same measure for KQTH: at most 0.25; for SKPF: at most 0.25.
Take ACVP: the enrichment ratio was at most 0.25.
Take EYMF: the enrichment ratio was at most 0.25.
Then FLIK, with at most 0.25; and VVMQ, with 13.3; and EVRI, with at most 0.25.
For VCTP, the enrichment ratio is at most 0.25.
Consider RARW, for which the enrichment ratio was at most 0.25.
Then LMTN, with at most 0.25; and SDLE, with at most 0.25; and RRLM, with 0.277.
Turning to FKFF, the enrichment ratio was at most 0.25.
Consider WKIE, for which the enrichment ratio is at most 0.25.
On to GLCV, for which the enrichment ratio was 7.06.
The same measure for FMIL: at most 0.25; for FFPC: at most 0.25.
With PALQ, the enrichment ratio was at most 0.25.
On to SKGC, for which the enrichment ratio was at most 0.25.
Then FTFE, with at most 0.25; and NNTQ, with at most 0.25; and NVHK, with at most 0.25.
Regarding HGPN, the enrichment ratio is at most 0.25.
As for GIVD, the enrichment ratio is at most 0.25.
Take PNLK: the enrichment ratio is at most 0.25.
For APGR, the enrichment ratio was at most 0.25.
For the variant HIFM, the enrichment ratio is at most 0.25.
Then HGRS, with at most 0.25; and DWIY, with at most 0.25; and NWFI, with at most 0.25.
Regarding KPEV, the enrichment ratio is at most 0.25.
As to MYQG, the enrichment ratio is at most 0.25.
For VWMA, the enrichment ratio was at most 0.25.
Take QKNP: the enrichment ratio is at most 0.25.
In the case of TQFF, the enrichment ratio was 7.62.
With HYAW, the enrichment ratio was at most 0.25.
As for HCKW, the enrichment ratio was at most 0.25.
APPK: the enrichment ratio was at most 0.25.
With VPLM, the enrichment ratio was at most 0.25.
As for IRQP, the enrichment ratio is at most 0.25.
As to PHWG, the enrichment ratio is at most 0.25.
Turning to YATY, the enrichment ratio was at most 0.25.
As to FYGH, the enrichment ratio was at most 0.25.
For RHTW, the enrichment ratio was at most 0.25.
Take AALW: the enrichment ratio is at most 0.25.
For RWWP, the enrichment ratio was at most 0.25.
Turning to ICHK, the enrichment ratio was at most 0.25.
For the variant WDRS, the enrichment ratio is at most 0.25.
Turning to NGCE, the enrichment ratio is at most 0.25.
YWTE: the enrichment ratio is at most 0.25.
On to PWEC, for which the enrichment ratio is at most 0.25.
Then EHAE, with at most 0.25; and MALW, with at most 0.25.
In the case of SWRD, the enrichment ratio is at most 0.25.
In the case of HYRE, the enrichment ratio was at most 0.25.
SDDP: the enrichment ratio is at most 0.25.
As for TWQL, the enrichment ratio is at most 0.25.
With IADW, the enrichment ratio was at most 0.25.
As for VPFS, the enrichment ratio is at most 0.25.
For WFPW, the enrichment ratio was at most 0.25.
With MIWQ, the enrichment ratio turned out to be 24.2.
Then HCYG, with at most 0.25; and MTSA, with at most 0.25; and LTDF, with at most 0.25.
The same measure for AEQL: 10.6; for SSPQ: at most 0.25; for NCKT: at most 0.25.
Consider LKWP, for which the enrichment ratio is at most 0.25.
Regarding GYPE, the enrichment ratio is at most 0.25.
Take ERWR: the enrichment ratio is at most 0.25.
The same measure for VWYN: at most 0.25.
Turning to PHHF, the enrichment ratio was at most 0.25.
With PEHT, the enrichment ratio was at most 0.25.
Turning to IVSF, the enrichment ratio is at most 0.25.
Take EFTP: the enrichment ratio is at most 0.25.
Consider RINM, for which the enrichment ratio was at most 0.25.
For EGRD, the enrichment ratio is at most 0.25.
PSME: the enrichment ratio is at most 0.25.
As to FLVL, the enrichment ratio was at most 0.25.
As to GHTC, the enrichment ratio was at most 0.25.
On to MWNA, for which the enrichment ratio was at most 0.25.
The same measure for GQTC: at most 0.25; for LCSI: at most 0.25.
For the variant YNLI, the enrichment ratio came to 3.53.
In the case of SNIH, the enrichment ratio is at most 0.25.
Regarding GWQP, the enrichment ratio was at most 0.25.
As to YCPP, the enrichment ratio is at most 0.25.
Take FECA: the enrichment ratio is at most 0.25.
Turning to YHDA, the enrichment ratio was at most 0.25.
On to GAKP, for which the enrichment ratio was at most 0.25.
The same measure for PPVT: at most 0.25; for MSNK: at most 0.25; for HWDD: at most 0.25.
Regarding VQNS, the enrichment ratio is at most 0.25.
KRML: the enrichment ratio is at most 0.25.
For FQSK, the enrichment ratio was at most 0.25.
As to WTYG, the enrichment ratio was at most 0.25.
The same measure for MDPM: at most 0.25; for FFYY: at most 0.25; for NKGF: at most 0.25.
The same measure for WMHW: at most 0.25.
Consider SNRV, for which the enrichment ratio was at most 0.25.
KDII: the enrichment ratio is at most 0.25.
In the case of LLWE, the enrichment ratio is at most 0.25.
Then RDAE, with at most 0.25.
The same measure for MRQM: at most 0.25; for MIFQ: 9.72; for PQKR: at most 0.25.
In the case of LWYY, the enrichment ratio is at most 0.25.
As for TVGL, the enrichment ratio stood at 8.95.
As for VPYE, the enrichment ratio is at most 0.25.
NGQL: the enrichment ratio is at most 0.25.
As for VCPY, the enrichment ratio is at most 0.25.
Turning to QHLD, the enrichment ratio was at most 0.25.
As to AQQF, the enrichment ratio is at most 0.25.
As for IDDF, the enrichment ratio is at most 0.25.
Consider KYPM, for which the enrichment ratio was at most 0.25.
As to SINN, the enrichment ratio is 5.42.
As for TDNI, the enrichment ratio is at most 0.25.
RFIT: the enrichment ratio is at most 0.25.
In the case of TYQA, the enrichment ratio is at most 0.25.
With EDAT, the enrichment ratio was 4.61.
Consider DYRR, for which the enrichment ratio is at most 0.25.
WNYR: the enrichment ratio is at most 0.25.
Turning to RRQT, the enrichment ratio was at most 0.25.
Turning to DQYA, the enrichment ratio is at most 0.25.
The same measure for KERM: at most 0.25; for ARFG: at most 0.25; for NHLA: at most 0.25.
Then NEHG, with at most 0.25; and MMPH, with at most 0.25.
Turning to HNQF, the enrichment ratio was at most 0.25.
In the case of EGLQ, the enrichment ratio is at most 0.25.
Take YDFI: the enrichment ratio was at most 0.25.
As for SRWR, the enrichment ratio was at most 0.25.
With HWDH, the enrichment ratio was at most 0.25.
Turning to VPSD, the enrichment ratio is at most 0.25.
Regarding EDVG, the enrichment ratio was at most 0.25.
Turning to GQLS, the enrichment ratio stood at 8.7.
The same measure for GPKA: at most 0.25.
The same measure for SVDR: at most 0.25; for KCYI: at most 0.25.
Regarding VRSS, the enrichment ratio is at most 0.25.
Regarding DAEE, the enrichment ratio is at most 0.25.
As for TFND, the enrichment ratio was at most 0.25.
For HAMG, the enrichment ratio was at most 0.25.
The same measure for YQMG: 0.271; for SFMK: at most 0.25; for SHYM: 0.284.
With TKTK, the enrichment ratio is at most 0.25.
Then QTYG, with at most 0.25; and KMPN, with at most 0.25.
With MCYT, the enrichment ratio was found to be 2.07.
In the case of PSWM, the enrichment ratio stood at 0.304.
Then SIMG, with 13.2; and TPHC, with at most 0.25.
Then LSKH, with at most 0.25; and KKNL, with at most 0.25.
As to DDRT, the enrichment ratio was at most 0.25.
As for IWSG, the enrichment ratio amounted to 0.954.
As to FTNR, the enrichment ratio was at most 0.25.
For the variant WPII, the enrichment ratio was at most 0.25.
Turning to GQPQ, the enrichment ratio is at most 0.25.
Then KGFM, with at most 0.25; and ANMF, with 0.299; and FYVA, with at most 0.25.
Then GQCP, with at most 0.25; and VAPH, with at most 0.25.
Consider PGTH, for which the enrichment ratio was at most 0.25.
FTQE: the enrichment ratio is at most 0.25.
As to THTY, the enrichment ratio worked out at 1.96.
WVSP: the enrichment ratio is 0.56.
For the variant AMIN, the enrichment ratio was at most 0.25.
Then LKET, with at most 0.25.
Regarding KYMM, the enrichment ratio was at most 0.25.
On to GVLA, for which the enrichment ratio worked out at 4.95.
With AVAA, the enrichment ratio is at most 0.25.
The same measure for CSSL: 2.98.

These data come from a collection of fitness landscapes (doi:10.1126/science.1257360).
